# Results reported in PubChem BioAssay AID1745853 (National Center for Advancing Translational Sciences (NCATS), 2022).
# The other results are listed elsewhere or left out. The main result of the screen is listed elsewhere. These columns were measured beside it and carry no call.
# How the values were obtained:
# Test in all cases: Primary Screen for Target Class Profiling of Small Molecule Inhibitors of Methyltransferases
# [1] = target: Glycine N-methyltransferase (Homo sapiens) (UniProt Q14749); conditions: purified enzyme, MTase-Glo SAH luminescence; measured here: GNMT inhibition; at 40 µM; stronger effect = lower value
# Outline: (§1)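 Each enzyme was reacted with SAM and its substrate, with compounds tested once at 40 uM; SAH formed was read by MTase-Glo luminescence.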
# [2] = target: Guanidinoacetate N-methyltransferase (Homo sapiens) (UniProt Q14353); conditions: purified enzyme, MTase-Glo SAH luminescence; measured here: GAMT inhibition; at 40 µM; stronger effect = lower value
# Outline: as §1
# [3] = target: Histamine N-methyltransferase (Homo sapiens) (UniProt P50135); conditions: purified enzyme, MTase-Glo SAH luminescence; measured here: HNMT inhibition; at 40 µM; stronger effect = lower value
# Outline: as §1
# [4] = target: Nicotinamide N-methyltransferase (Homo sapiens) (UniProt P40261); conditions: purified enzyme, MTase-Glo SAH luminescence; measured here: NNMT inhibition; at 40 µM; stronger effect = lower value
# Outline: as §1
# [5] = target: Phenylethanolamine N-methyltransferase (Homo sapiens) (UniProt P11086); conditions: purified enzyme, MTase-Glo SAH luminescence; measured here: PNMT inhibition; at 40 µM; stronger effect = lower value
# Outline: as §1
# % is scaled to controls: 0 for no effect and ±100 for the full control effect.
SMILES,"activity change, negative = inhibition [1]","activity change, negative = inhibition [2]","activity change, negative = inhibition [3]","activity change, negative = inhibition [4]","activity change, negative = inhibition [5]"
Cc1ccc(-c2nnc3ccc(-c4ccoc4)nn23)nc1,-38.1%,-9.22%,-5.14%,-14.7%,-13.3%
CN(C)c1nc(Cc2ccc(NC(=O)c3ccc4ccccc4c3)cc2)nc(Cl)c1CC(=O)O,-18.7%,-2.21%,12%,-20.4%,3.47%
Cc1ccc(Cn2c(=O)c3ccc(C(=O)NCC(C)C)cc3n3c(=O)n(Cc4ccccc4F)nc23)cc1,5.07%,0.339%,5.84%,2.59%,3.49%
O=C1[C@H](CC[C@H](O)c2ccc(F)cc2)[C@@H](c2ccc(O)cc2)N1c1ccc(F)cc1,-2.2%,-8.25%,-2.34%,-44.4%,-9.69%
C/C=C/C=C/[C@@H]1O[C@](O)([C@H](CC)C(=O)NC/C=C/C=C(\C)[C@@H](OC)[C@@H](C)C2OC(/C=C/C=C/C=C(\C)C(=O)c3c(O)cc[nH]c3=O)[C@H](O)[C@@H]2O)[C@H](O)[C@H](O)C1(C)C (stereo partly specified),2.03%,1.65%,7.63%,-8.45%,-3.18%
C[C@@H]1C[C@H]2OC(=O)[C@@]3(C)CCC[C@](C)(C23)[C@@]1(O)CCC1=CC(=O)OC1O (stereo partly specified),1.83%,8.62%,7.85%,-2.77%,7.04%
CNC(=O)c1cc[nH]c1C1CCCN(C(=O)Cc2ccsc2)C1 (stereo unspecified),-4.61%,-10.8%,-2.32%,-2.76%,-5.47%
CC1(C(=O)NC2CCCCCC2)Cn2c(cc3occc32)C(=O)N1Cc1ccccc1 (stereo unspecified),3.85%,0.576%,8.27%,3.82%,4.29%
Cc1cc(-c2ncc(CC(=O)Nc3ccc(-c4cnccn4)cn3)cc2C)ccn1,-15.4%,-8.64%,-0.696%,-33.3%,-7.53%
O=C(Nc1ccccc1C(F)(F)F)N1Cc2c(sc3c2CCCC3)-n2cccc2C1c1ccccc1 (stereo unspecified),-4.46%,0%,1.17%,-7.03%,5.29%
O=C(O)COCCN1CCN([C@H](c2ccccc2)c2ccc(Cl)cc2)CC1,1.98%,-6.88%,0.94%,-27.7%,-2.78%
F[C@@H]1CN(Cc2nccs2)C[C@@H]1OCc1nc2ccccc2o1,-4.26%,-3.28%,0.465%,-4.91%,5.92%
CCOCCCNC(=O)c1cc2n(n1)CC(C)(C(=O)NC1CCCCC1)N(C)C2=O (stereo unspecified),5.28%,0%,2.04%,6.76%,1.35%
O=C(NCC(=O)N1CC[C@H](NC2CCC(O)(c3ccc(-c4ncccn4)cn3)CC2)C1)c1cccc(C(F)(F)F)c1 (stereo partly specified),4.38%,5.09%,11%,-13.9%,1.39%
Cc1cnc(C(=O)NCCc2ccc(S(=O)(=O)NC(=O)NC3CCCCC3)cc2)cn1,-5.72%,2.33%,-2.7%,-8.36%,-2.92%
O=C(O)c1cccc(-c2ccc(-c3cn(C(=O)N4CCCCC4Cc4ccccc4)nn3)cc2)c1 (stereo unspecified),-43.3%,-23.9%,-9.71%,-45.5%,-9.67%
CC1CCN(S(=O)(=O)c2ccc3c(ccn3CC(=O)NCc3ccccc3F)c2)CC1,5.47%,1.47%,2.87%,3.85%,2.76%
O=C(COc1ccccc1)NC1CCc2nnc(C3CC3)n2CC1 (stereo unspecified),0.033%,1.04%,1.66%,1.44%,0.133%
O=C(CCc1nnc2n(Cc3ccc(F)cc3)c(=O)c3ccccc3n12)N1CCN(c2ccc(Cl)cc2)CC1,2.89%,2.06%,2.51%,2.21%,-2%
CC(C)(N)c1cc(C(=O)N[C@@H]2CCc3ccc(Oc4ccnc5c4CCC(=O)N5)cc3C2)cc(C(F)(F)F)c1,,6.68%,,-47.3%,-4.1%

SMILES,"activity change, negative = inhibition [1]","activity change, negative = inhibition [2]","activity change, negative = inhibition [3]","activity change, negative = inhibition [4]","activity change, negative = inhibition [5]"
COc1ccccc1CNC(=O)C1(C)Cn2c(cc3ccccc32)C(=O)N1C1CCCC1 (stereo unspecified),3.98%,2.28%,4.31%,4.59%,1.22%
CN(C(=O)c1cccc2ccccc12)C1CCCN(C2Cc3ccccc3C2)C1 (stereo unspecified),-6.34%,-7.7%,-4.09%,-13.8%,-22.2%
CC(C)NC[C@H](O)COc1cccc2[nH]ccc12,3.63%,14.2%,12.1%,-0.746%,6.43%
COc1ccccc1NC(=O)N1CC(C(=O)NCC2CC2)CC(c2ccccc2)C1 (stereo unspecified),-4.65%,-3.93%,-2.23%,-11.6%,-11.6%
CC(C)CCn1c(=O)c2ccccc2n2c(=O)n(CC(=O)Nc3ccc4c(c3)OCCO4)nc12,-0.164%,1.45%,2.91%,-5.83%,-0.956%
Cc1ccc(Cn2c(=O)c3ccccc3n3c(-c4ccc(Br)cc4)nnc23)cc1,-0.591%,0%,7.6%,7.96%,0.817%
CN1CCC(NC(=O)c2cc(-c3c(O)cc(O)cc3Oc3ccc([N+](=O)[O-])cc3)on2)CC1,1.87%,4.26%,-19.4%,-13.3%,-3.04%
CCC(C)NC(=O)c1ccc2c(=O)n(C)c3nnc(SCc4c(F)cccc4Cl)n3c2c1 (stereo unspecified),1.84%,3.96%,1.39%,1.87%,-4.94%
COC(=O)[C@@H]1Cc2ncn(Cc3ccccc3)c2CN1C(=O)c1cccs1,-11.7%,-17.3%,-5.93%,-21.6%,-13.2%
CCOc1ccccc1CN1C[C@@H](CO)[C@H](C2CCN(C(C)=O)CC2)C1,0.023%,-0.873%,-7.78%,-5.16%,14.6%
CC1(C(=O)NCc2ccccc2)Cn2cnc(C(=O)NCc3cccnc3)c2C(=O)N1C1CC1 (stereo unspecified),-2.98%,-1.33%,0.61%,-2.72%,0.055%
COC(=O)C1=CO[C@@H](O[C@@H]2O[C@H](CO[C@@H]3O[C@H](CO)[C@@H](O)[C@H](O)[C@H]3O)[C@@H](O)[C@H](O)[C@H]2O)[C@@H]2C(CO)=CC[C@H]12,5.82%,4.52%,8.22%,-7.37%,-1.99%
C=C1/C(=C\C=C2/CCC[C@@]3(C)C2CC[C@@H]3[C@H](C)/C=C\[C@@H](O)C2CC2)C[C@@H](O)C[C@@H]1O (stereo partly specified),,0.074%,,-14.5%,-1.08%
NC(=O)CN1C(=O)CO[C@H]2CN(Cc3ccc(Cl)cc3)C[C@H]21,-1.71%,-3.42%,0.263%,-3.91%,-15.7%
COc1cc2ncnc(Oc3ccc(CC(=O)Nc4cnn(C(C)C)c4)cc3)c2cc1OC,-3.73%,5.39%,-0.269%,-27.2%,-4.44%
CCNC(=O)N1C[C@@H](F)[C@@H](OCc2nc3ccc(F)cc3[nH]2)C1,-1.29%,-3.84%,-1.74%,-11.3%,-7.32%
CC1(C(=O)NC2CCCCCCC2)Cn2c(cc3sccc32)C(=O)N1CCN1CCCCCC1 (stereo unspecified),-1.36%,4.36%,-26.4%,-9.35%,-4.44%
CC(C)NC(=O)c1ccc2c(=O)n(Cc3ccccc3)c3nnc(SCc4ccccc4F)n3c2c1,4.72%,6.41%,4.77%,0.399%,5.66%
CN1C(=O)c2cc(C(=O)NCc3cccc(F)c3)nn2CC1(C)C(=O)NCc1ccccc1 (stereo unspecified),-1.61%,-1.96%,2.02%,-6.91%,-2.51%
CCC(C)NC(=O)c1ccc2c(=O)n(CC(C)C)c3nn(CC(=O)Nc4cc(C)cc(C)c4)c(=O)n3c2c1 (stereo unspecified),4.84%,0%,7.01%,5.08%,5.02%

SMILES,"activity change, negative = inhibition [1]","activity change, negative = inhibition [2]","activity change, negative = inhibition [3]","activity change, negative = inhibition [4]","activity change, negative = inhibition [5]"
CCOC(=O)c1cc2n(n1)CC(C)(C(=O)NC1CCCCCC1)N(c1cccc(C)c1C)C2=O (stereo unspecified),4.28%,3.21%,-9.24%,1.91%,4.7%
COC(=O)Nc1nc2ccc(C(=O)c3ccc(F)cc3)cc2[nH]1,-1.11%,-3.29%,3.43%,-19.7%,-5.41%
Cc1ccc2c(c1)c1c3n2CCN(C(C)c2ccccc2)C3CCC1 (stereo unspecified),2.92%,1.27%,6.44%,4.48%,1.23%
CC(C)Cn1c(=O)c2ccccc2n2c(CCC(=O)NC3CCCCC3)nnc12,6.58%,-2.34%,8.69%,6.41%,-3.98%
CCc1ccc(C(=O)COC(=O)C(Cc2c[nH]c3ccccc23)NC(=O)c2ccc(CC)cc2)cc1 (stereo unspecified),10.4%,0%,7.44%,2.6%,3.73%
COc1ncc(-c2ccc3nccc(-c4ccnnc4)c3c2)cc1NS(=O)(=O)c1ccc(F)cc1F,-30.4%,-22.1%,-15.6%,-32.5%,-25.4%
COc1cccc(CNC(=O)Cn2ccc3cc(S(=O)(=O)N4CCCC4)ccc32)c1OC,-5.7%,2.11%,-6.89%,-8.27%,-4.25%
CCN1CCN(Cc2cc3ccc(C)cc3nc2-c2ccc(OC)c(OC)c2)CC1,-15.3%,-10.8%,-19.9%,-25.9%,-14.3%
CC(C)CNC(=O)c1ccc2nnc(C(C)(C)C)n2c1,-4.63%,-7.21%,-4.17%,-9.36%,-5.16%
COc1cccc(-c2[nH]cnc2-c2ccccc2)c1OCCCN(C)C,-8.92%,-8.3%,-14%,-16.7%,-2.15%
O=C(CCCc1nnc2n3nc(-c4ccccc4)nc3c3ccccc3n12)NCCCN1CCOCC1,-8.31%,1.94%,-7.7%,5.77%,-8.16%
COCCNC(=O)CC[C@]12CC[C@](C)(O)C[C@H]1C(C)(C)C[C@@H]2NS(=O)(=O)c1ccc(C)cc1,-1.88%,-0.794%,-0.281%,-2.77%,0.524%
COc1cccc(NC(=O)N2CCn3cccc3C2C(C)C)c1 (stereo unspecified),7.54%,0%,0.637%,-0.705%,-0.119%
CN(CC1Cc2ccccc2O1)C(=O)c1coc(COc2ccc3c(c2)OCO3)n1 (stereo unspecified),-10.5%,-7.21%,-4.94%,-20.3%,-12.4%
COc1cccc(CN2C(=O)c3nc4ccccc4n3CC2(C)C(=O)NC2CCCCC2)c1OC (stereo unspecified),2.21%,0%,0.442%,0.67%,-3.13%
CN1C(=O)C(CC(=O)N2CCC(C#N)CC2)(Cc2ccccc2)c2ccccc21 (stereo unspecified),-0.208%,-0.507%,-1.69%,2.81%,1.76%
Cc1cccc(C)c1OCC(N)C(C)C (stereo unspecified),-20.8%,3.84%,1.47%,-8.13%,-1.4%
O=C(NCc1cccs1)c1cc(C2CC2)nc2onc(C3CCCNC3)c12 (stereo unspecified),-9.23%,-7.44%,-16.7%,-19.9%,-8.44%
